According to PubChem BioAssay AID504333 (National Center for Advancing Translational Sciences (NCATS), 2011):
Hit rate of the full screen: of about 360,000 compounds, about 16,000 (4.4%) were called active. This list was built around the results that the source calls inconclusive (neither active nor inactive); the mix of calls is not that of the screen. Calls follow the shape of the dose curve; as a rule, active = well fitted inhibition curve with a large enough effect; inconclusive = small, poorly fitted or top-dose-only effect; inactive = no such curve, though single readings can be large or run the other way. Potencies beside an inconclusive call are fits to weak or partial responses and may not hold up.

Target: Bromodomain adjacent to zinc finger domain protein 2B (Homo sapiens) (UniProt Q9UIF8)
Assay: qHTS Assay for Inhibitors of BAZ2B; also: nearly all actives have a fitted effect of over 60% in size
Details: AlphaScreen BAZ2B-H3K14Ac peptide displacement; activity change, negative = inhibition: at 114 µM (top of the series)
Outline: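 Compounds, titrated to a top concentration of 110 uM, were incubated 30 min at room temperature with preformed BAZ2B/acetyl-K14 H3 peptide complex (50 nM each). Proximity signal was measured by AlphaScreen after 20 min with beads.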
% is scaled to controls: 0 for no effect and ±100 for the full control effect; potency is read from the fitted curve at half-maximal effect; tags tell the direction and shape of the fitted curve.

Chain of UniProt Q9UIF8 (Q9UIF8 whole entry, looked up, the tested form may be a part): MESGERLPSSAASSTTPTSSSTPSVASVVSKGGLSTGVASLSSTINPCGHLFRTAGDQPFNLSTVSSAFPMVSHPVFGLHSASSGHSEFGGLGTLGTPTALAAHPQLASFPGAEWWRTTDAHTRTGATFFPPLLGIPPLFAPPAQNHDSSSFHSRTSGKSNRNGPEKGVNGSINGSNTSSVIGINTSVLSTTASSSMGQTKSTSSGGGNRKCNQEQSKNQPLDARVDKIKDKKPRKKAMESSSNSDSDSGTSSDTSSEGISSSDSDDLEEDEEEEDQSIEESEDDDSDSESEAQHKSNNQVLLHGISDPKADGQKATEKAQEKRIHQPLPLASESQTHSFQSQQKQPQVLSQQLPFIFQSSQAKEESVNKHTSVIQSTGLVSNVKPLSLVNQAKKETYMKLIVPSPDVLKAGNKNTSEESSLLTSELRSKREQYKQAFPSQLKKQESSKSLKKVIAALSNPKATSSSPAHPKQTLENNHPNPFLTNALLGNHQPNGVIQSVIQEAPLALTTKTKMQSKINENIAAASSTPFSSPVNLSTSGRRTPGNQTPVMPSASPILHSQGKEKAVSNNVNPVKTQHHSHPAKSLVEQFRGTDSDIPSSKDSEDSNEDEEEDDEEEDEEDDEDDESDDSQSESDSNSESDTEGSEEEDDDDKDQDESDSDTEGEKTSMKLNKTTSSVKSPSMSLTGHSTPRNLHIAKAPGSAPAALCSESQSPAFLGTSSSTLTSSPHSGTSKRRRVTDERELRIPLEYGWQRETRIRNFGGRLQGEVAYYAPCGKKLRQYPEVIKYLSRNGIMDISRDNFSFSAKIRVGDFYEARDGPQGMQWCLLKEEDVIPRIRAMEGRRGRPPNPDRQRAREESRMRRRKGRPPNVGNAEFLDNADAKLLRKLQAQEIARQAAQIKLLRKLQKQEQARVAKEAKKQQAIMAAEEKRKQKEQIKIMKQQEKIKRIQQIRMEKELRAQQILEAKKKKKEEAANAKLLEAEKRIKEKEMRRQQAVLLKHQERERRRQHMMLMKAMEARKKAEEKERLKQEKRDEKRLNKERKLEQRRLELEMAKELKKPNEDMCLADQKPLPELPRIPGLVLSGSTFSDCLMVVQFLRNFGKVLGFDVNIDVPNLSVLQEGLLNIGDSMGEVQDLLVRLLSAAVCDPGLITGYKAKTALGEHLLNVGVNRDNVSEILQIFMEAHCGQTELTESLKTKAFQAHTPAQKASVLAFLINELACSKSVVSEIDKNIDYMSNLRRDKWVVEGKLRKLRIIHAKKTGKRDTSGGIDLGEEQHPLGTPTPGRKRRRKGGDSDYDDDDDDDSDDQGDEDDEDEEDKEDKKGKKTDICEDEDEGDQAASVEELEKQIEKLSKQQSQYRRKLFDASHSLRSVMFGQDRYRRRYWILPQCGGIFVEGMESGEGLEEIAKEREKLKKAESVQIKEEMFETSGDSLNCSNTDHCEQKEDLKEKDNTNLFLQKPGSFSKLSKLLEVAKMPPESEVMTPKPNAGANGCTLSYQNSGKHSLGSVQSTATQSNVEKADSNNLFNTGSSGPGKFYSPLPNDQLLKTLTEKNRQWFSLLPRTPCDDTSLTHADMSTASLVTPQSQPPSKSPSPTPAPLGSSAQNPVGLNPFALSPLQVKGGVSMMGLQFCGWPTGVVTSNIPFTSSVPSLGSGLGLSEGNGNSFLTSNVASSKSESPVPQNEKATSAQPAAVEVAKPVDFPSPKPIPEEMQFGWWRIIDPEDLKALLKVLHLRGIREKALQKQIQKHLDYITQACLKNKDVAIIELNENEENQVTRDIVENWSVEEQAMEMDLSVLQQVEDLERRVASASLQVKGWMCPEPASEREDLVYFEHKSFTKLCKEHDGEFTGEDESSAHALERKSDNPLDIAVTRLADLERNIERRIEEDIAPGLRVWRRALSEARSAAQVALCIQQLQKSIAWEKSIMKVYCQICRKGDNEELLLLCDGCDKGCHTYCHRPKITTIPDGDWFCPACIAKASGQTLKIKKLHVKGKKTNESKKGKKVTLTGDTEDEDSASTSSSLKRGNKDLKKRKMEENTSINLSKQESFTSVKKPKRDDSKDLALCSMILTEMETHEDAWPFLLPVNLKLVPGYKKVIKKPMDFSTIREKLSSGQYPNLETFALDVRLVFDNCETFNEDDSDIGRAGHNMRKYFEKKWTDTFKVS

| SMILES | activity change, negative = inhibition | Potency |
| --- | --- | --- |
| O=C(CC1SC(=Nc2ccccc2)N(CCCO)C1=O)Nc1ccc(Cl)cc1 (stereo not drawn) | inactive: -1.08% | – |
| Cc1ccc(Cn2cc(C(=O)c3ccc(F)cc3)c(=O)c3cc4c(cc32)OCO4)cc1 | – | inconclusive: 79.4 µM [inhibitor, partial curve] |
| CN(C)CCCN1c2ccccc2Sc2ccc(C(F)(F)F)cc21 | – | active: 31.6 µM |
| O=[N+]([O-])c1cc([N+](=O)[O-])c(Oc2c(F)cccc2F)cc1NN1CCCCC1 | – | inconclusive: 17.8 µM [inhibitor, full curve] |
| COC(=O)c1ccc(NC(=O)CCc2c(C)nc3c(-c4ccccc4)c(C)nn3c2C)cc1 | – | inconclusive: 39.8 µM [inhibitor, single point] |
| Cc1cc2[nH]c3c(c[n+](C)c4ccccc34)c2cc1C | – | inconclusive: 89.1 µM [inhibitor, single point] |
| CN1CCN(CCOC2Cc3ccccc3Sc3ccc(Cl)cc32)CC1 (stereo not drawn) | – | inconclusive: 79.4 µM [inhibitor, single point] |
| O=C(NCc1ccco1)c1ccccc1NS(=O)(=O)c1ccc2c(c1)OCCO2 | – | inconclusive: 89.1 µM [inhibitor, single point] |
| CCC1=Nc2cc(C(=O)NCC(C)c3ccccc3)ccc2Sc2ccc(C)cc21 (stereo not drawn) | inactive: -4.79% | – |
| CN(Cc1ccc(OCC(O)CN(C)Cc2ccccc2)cc1)Cc1nccn1C (stereo not drawn) | – | inconclusive: 79.4 µM [inhibitor, single point] |
| COC(=O)c1cc2c(ccn2-c2ccc(F)cc2)n1Cc1ccc(OC(C)=O)cc1 | – | inconclusive: 31.6 µM [inhibitor, partial curve] |
| Cc1cc(C(=O)Nc2ccccc2C(=O)O)ccc1NC(=O)COc1cccc([N+](=O)[O-])c1 | – | inconclusive: 89.1 µM [inhibitor, single point] |
| Nc1sc2c(c1C(=O)NCCc1ccccc1)CCC2 | – | inconclusive: 79.4 µM [inhibitor, single point] |
| Cc1ccc(C)c(CN2C(=O)c3ccccc3S(=O)(=O)c3ccc(C(=O)N4CCc5ccccc54)cc32)c1 | – | inconclusive: 56.2 µM [inhibitor, partial curve, poor fit] |
| Cn1c(-c2sccc2OCc2ccc(Cl)cc2Cl)n[nH]c1=S | – | inconclusive: 50.1 µM [inhibitor, partial curve] |
| CCOC(=O)/C(=C\c1ccc([N+](=O)[O-])cc1)C(=O)c1cc(C(C)=O)c(Nc2ccccc2)s1 | – | inconclusive: 39.8 µM [inhibitor, partial curve] |
| COc1ccc(-c2cc(C(F)(F)F)n3nc(C(=O)NCCCn4ccnc4)cc3n2)cc1 | – | inconclusive: 89.1 µM [inhibitor, single point] |
| Nc1ccc(C(=O)N/N=C/c2cn(Cc3ccc(F)cc3)c3ccccc23)cc1 | – | inconclusive: 39.8 µM [inhibitor, partial curve] |
| CN(C)c1ccc(C2CC(c3ccccc3)=Nc3nc(-c4ccccc4)cn32)cc1 (stereo not drawn) | – | inconclusive: 50.1 µM [inhibitor, partial curve] |
| O=C(Cc1cc(=O)[nH][nH]1)N/N=C/c1c(Cl)cccc1Cl | inactive: -36.1% | – |
| O=C(Nc1ccccc1)C1=C(O)CC(c2ccc(Cl)cc2)N2CCN=C12 (stereo not drawn) | inactive: -0.26% | – |
| Cc1cc(C)c(NC(=O)Cn2c(=O)n(-c3cccc(C(F)(F)F)c3)c(=O)c3c(C)c(C)sc32)c(C)c1 | inactive: 1.54% | – |

| SMILES | activity change, negative = inhibition | Potency |
| --- | --- | --- |
| COC(=O)c1cc([N+](=O)[O-])ccc1N1CCN(Cc2ccccc2)CC1 | – | inconclusive: 50.1 µM [inhibitor, partial curve] |
| COCCN1C(=S)N[C@@H](c2ccccc2)C(C(=O)OC)=C1C | – | inconclusive: 79.4 µM [inhibitor, single point] |
| O=C(NCCN1CCOCC1)c1cccc(NS(=O)(=O)c2ccc(Br)cc2)c1 | inactive: -1.2% | – |
| c1cncc(-c2nn[nH]n2)c1 | inactive: 1% | – |
| Cc1n[nH]c(C)c1CCN(C)Cc1cn(C)nc1-c1ccc2c(c1)OCCO2 | – | inconclusive: 3.55 µM [inhibitor, single point] |
| Cc1ccc(-n2nnnc2SCC(=O)NC2CC2)cc1C | inactive: -16.9% | – |
| Cc1cc(/C=C(/C#N)c2nc3ccccc3[nH]2)c(C)n1-c1ccccc1C(=O)O | – | active: 50.1 µM |
| COc1cccc(/C=C/C(=O)c2ccc(NS(=O)(=O)c3ccc(C)cc3)cc2)c1 | – | inconclusive: 39.8 µM [inhibitor, full curve, poor fit] |
| Cc1cccc(C2CC3(CC(C)(C)NC(=S)N3)Oc3cc(O)ccc32)c1 (stereo not drawn) | – | inconclusive: 44.7 µM [inhibitor, partial curve] |
| O=C(NCc1cccc(F)c1)C1CCN(c2nc3ccccc3nc2C(F)(F)F)CC1 | inactive: -0.376% | – |
| Cc1[nH]c2ccccc2c1CCNS(=O)(=O)c1ccc(S(N)(=O)=O)cc1 | inactive: -16.8% | – |
| COc1ccc(NC(=O)c2ccco2)cn1 | inactive: 3.98% | – |
| COc1ccc(C)cc1Nc1n[n+](-c2ccccc2)c(-c2c(OC)ccc3ccccc23)s1 | – | inconclusive: 44.7 µM [inhibitor, partial curve] |
| O=C(/C=C/c1ccc([N+](=O)[O-])cc1)NCCSCc1ccco1 | – | inconclusive: 89.1 µM [inhibitor, single point] |
| C=CCOc1cccc(/C=C/c2nc3ccccc3c(=O)[nH]2)c1 | – | inconclusive: 89.1 µM [inhibitor, single point] |
| CCN(CC)S(=O)(=O)c1cc(-c2nn(C)c(=O)c3ccccc23)ccc1C | – | active: 50.1 µM |
| COC(=O)/C=C1\S/C(=N/N=C/c2ccc(Cl)cc2)NC1=O | – | inconclusive: 79.4 µM [inhibitor, single point] |
| COc1ccc(-n2nc3c(N4CCC(C(=O)NCc5ccco5)CC4)nnc(C)c3c2C)cc1 | – | inconclusive: 44.7 µM [inhibitor, partial curve] |
| CCOCCCNC(=O)c1ccc2c(c1)NC(=O)C(CS(=O)(=O)Cc1ccc(F)cc1Cl)N2 (stereo not drawn) | – | inconclusive: 70.8 µM [inhibitor, single point] |
| COc1ccc(CNC(=O)Cn2c(=O)n(CC(=O)N3CCCCC3)c(=O)c3sccc32)cc1 | inactive: -22.8% | – |
| CCCN1/C(=C2/SC(=S)N(CC)C2=O)C=Cc2ccccc21 | – | active: 2 µM |
